According to the supplement of paper PMC4166925:
± gives the standard deviation of the averaged measurements. In all, about 33,000 sequences were measured (“E-score (dimensionless, -0.5 to 0.5)”: median about -0.049, highest 2% from about 0.37 on). This is one part of the list.

system: T1, PmTbr T-box DNA-binding domain (GST fusion); experiment: PBM E-score of 8-mer (E-score (dimensionless, -0.5 to 0.5)); Tbr is Tbrain of the sea star Patiria miniata (Pm) or the sea urchin Strongylocentrotus purpuratus (Sp); higher = stronger binding preference; most listed sequences are background and not binding sites; settings: the construct has about 5 more residues each side
T1 sequence: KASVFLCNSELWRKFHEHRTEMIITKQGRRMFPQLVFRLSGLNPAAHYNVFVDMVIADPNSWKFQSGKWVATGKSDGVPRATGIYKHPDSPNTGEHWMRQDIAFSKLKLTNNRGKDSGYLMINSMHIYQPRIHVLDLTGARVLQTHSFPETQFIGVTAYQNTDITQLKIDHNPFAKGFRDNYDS
Description: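 Universal protein-binding microarray (Agilent AMADID 016060, 60-bp probes with a 35-bp variable region) incubated with 200 nM GST-fused Patiria miniata Tbr T-box DNA-binding domain (residues 272-466) in PBS pH 7.5. Scored for every ungapped 8-mer (given with its reverse complement) by the Universal PBM Analysis Suite as E-score (modified Wilcoxon-Mann-Whitney enrichment, range -0.5 to 0.5; >0.45 counts as bound) and Z-score of median probe intensity. Two replicate arrays (datasets 1 and 2).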
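Note: 200 nM protein in PBS on universal arrays averaged over duplicate arrays.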

Row | Sequence | PBM E-score of 8-mer
1 | TGACTCAA | -0.164 ± 0.014
2 | CCCTCTTC | -0.173 ± 0.0054
3 | ATTCCCAA | -0.313 ± 0.045
4 | GCGGGCCC | -0.171 ± 0.093
5 | GGTCCTTA | -0.279 ± 0.02
6 | AGATTCCG | 0.0096 ± 0.0062
7 | ACTGCTCA | -0.125 ± 0.026
8 | ACATTAAC | 0.15 ± 0.044
9 | CTCCTTAC | -0.0874 ± 0.042
10 | AGCGTCCT | -0.167 ± 0.046
11 | AGTTCCGC | 0.0134 ± 0.019
12 | ACGAGGAT | -0.221 ± 0.012
13 | GTTTTTCA | 0.241 ± 0.035
14 | AGTTATAA | -0.14 ± 0.013
15 | ATGTCGTG | 0.135 ± 0.011
16 | CGCATGTA | -0.154 ± 0.013
17 | CGTACAAG | -0.155 ± 0.086
18 | CTAATTCA | 0.152 ± 0.017
19 | ACTGTTAC | 0.118 ± 0.043
20 | AAGCTCGA | -0.131 ± 0.03
21 | CAGTGAAA | 0.086 ± 0.062
22 | ATGTCTGA | -0.155 ± 0.017

Row | Sequence | PBM E-score of 8-mer
23 | ACAGCCGG | -0.149 ± 0.03
24 | ACCAAGCA | -0.119 ± 0.059
25 | CATATTAA | -0.183 ± 0.051
26 | CCATTTTC | -0.0582 ± 0.12
27 | AGTTATGC | -0.0257 ± 0.024
28 | ACCGCCTA | -0.0488 ± 0.063
29 | ACAGCACC | 0.255 ± 0.0057
30 | GGTTTGGA | -0.144 ± 0.0032
31 | GTGAGGGA | 0.168 ± 0.044
32 | TAAGCACA | -0.0647 ± 0.076
33 | GTCCTCAA | -0.21 ± 0.0099
34 | AATTCTGA | -0.0118 ± 0.089
35 | CGGGTCCC | 0.0661 ± 0.095
36 | CAACGTCG | 0.057 ± 0.012
37 | GACGCGGA | -0.0152 ± 0.0088
38 | ATGTGCTC | -0.297 ± 0.012
39 | ATCCCATG | -0.123 ± 0.0037
40 | ATACACTC | 0.0255 ± 0.064
41 | CTCAAGGC | -0.251 ± 0.011
42 | ATCCAGCA | -0.175 ± 0.032
43 | GGTCAGCA | -0.191 ± 0.1
44 | GCGTATAC | -0.077 ± 0.068

Row | Sequence | PBM E-score of 8-mer
45 | CCGCATAC | -0.209 ± 0.1
46 | AGGAGAAC | -0.0577 ± 0.047
47 | CGTTGTAC | -0.0969 ± 0.027
48 | ATGGAGTA | -0.232 ± 0.0091
49 | ACACAAAG | 0.0805 ± 0.039
50 | CCGCACAC | 0.159 ± 0.027
51 | CAAATCAA | -0.0108 ± 0.0023
52 | CAAGTATG | 0.134 ± 0.013
53 | TCGAGCGA | -0.0621 ± 0.063
54 | AGATCGGA | 0.0259 ± 0.052
55 | CCTGATTA | -0.0272 ± 0.028
56 | ACAGTACA | 0.00842 ± 0.022
57 | AATTGTCC | -0.195 ± 0.11
58 | CCCGGGCC | -0.22 ± 0.089
59 | ATGTGGCG | 0.236 ± 0.025
60 | GCCCTCGC | 0.212 ± 0.023
61 | GTGTATAA | 0.108 ± 0.1
62 | CCGACTGA | -0.0945 ± 0.011
63 | CACACTCA | 0.3814 ± 0.0034
64 | AATAGGGT | -0.0937 ± 0.038
65 | CCGACGCC | 0.215 ± 0.051
66 | AGCCTCCC | -0.216 ± 0.003

Row | Sequence | PBM E-score of 8-mer
67 | ATACACTA | -0.161 ± 0.026
68 | GAAGTCAA | -0.139 ± 0.031
69 | AGCCTTTC | -0.125 ± 0.036
70 | ATTCAACA | -0.0395 ± 0.014
71 | AATCCTTA | -0.0874 ± 0.016
72 | CCTTTAAC | 0.13 ± 0.11
73 | CCCCCCCG | -0.265 ± 0.022
74 | ATTCGCGA | 0.389 ± 0.0025
75 | ATAGTCAT | -0.205 ± 0.072
76 | AAAAGCCT | -0.105 ± 0.013
77 | CACGCTCC | 0.148 ± 0.012
78 | CAGATATA | -0.126 ± 0.1
79 | CGAATCCG | 0.117 ± 0.028
80 | CTTGAGGC | -0.198 ± 0.017
81 | AACAGTAC | 0.0354 ± 0.012
82 | ACGCTGGC | 0.0376 ± 0.024
83 | ATTGTACA | -0.164 ± 0.014
84 | TTATGCAA | -0.22 ± 0.041
85 | AAGTACGC | -0.109 ± 0.045
86 | GTGACAGA | 0.348 ± 0.0052
